Experimental data published in the supplement of paper PMC9446081.
Out of some 39,000 compounds screened, about 220 (0.56%) showed activity. Some of the results follow.

These compounds were tested on Escherichia coli K-12 BW25113 (assay: relative growth (OD600 normalised to plate interquartile mean) (fraction); higher = less growth inhibition, active = 0.2 or less). Details: 50 µM; LB; incubation time: overnight (16-24 h).
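Note: static incubation at 37 °C against the wild-type strain, values averaged over two biological replicates.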

Row | Structure (SMILES) | relative growth
1 | CCn1cc(C(=O)O)c(=O)c2cnc(N3CCCC3)nc21 | inactive: 1.09
2 | COc1ccccc1C#Cc1ccc2c(c1)O[C@H](CN(C)Cc1ccncc1)[C@@H](C)CN([C@H](C)CO)S2(=O)=O | inactive: 1
3 | COc1ccc(NC(=O)N(C)C[C@H]2Oc3ncc(C#CCN(C)C)cc3C(=O)N([C@@H](C)CO)C[C@@H]2C)cc1 | inactive: 1
4 | CO[C@H]1[C@@H](O)[C@H](n2ccc(N)nc2=O)O[C@@H]1CO | inactive: 0.977
5 | Cc1cccc(CO)n1 | inactive: 0.975
6 | CO[C@@H]1CN(C)C(=O)c2ccc(NS(=O)(=O)c3cn(C)cn3)cc2OC[C@@H](C)N(CCC(F)(F)F)C[C@@H]1C | inactive: 1.01
7 | COc1ccc(CN(C)C[C@H]2OCCCC[C@H](C)Oc3ccc(NC(=O)C4CCCCC4)cc3C(=O)N([C@H](C)CO)C[C@@H]2C)cc1 | inactive: 0.998
8 | CC(C)(C)OC(=O)CC[C@]1(C(=O)NC[C@@H](O)CO)COC(c2ccc(OCCCO)cc2)=N1 | inactive: 1.01
9 | COc1ccc([Si](C)(C)[C@H]2[C@H](CC(=O)N3Cc4ccccc4C[C@H]3CO)O[C@@]3(C(=O)N(Cc4cccc(N5CCCCC5=O)c4)c4ccccc43)[C@@H]2C)cc1 | inactive: 1.03
10 | CS(=O)(=O)Nc1ccc2c(c1)[C@@H]1C[C@@H](CC(=O)NCC3CC3)O[C@@H](CO)[C@@H]1O2 | inactive: 0.975
11 | C[C@H]1CCCCO[C@@H](CN(C)Cc2ccc(C(=O)O)cc2)[C@@H](C)CN([C@@H](C)CO)C(=O)c2cc(NC(=O)NC3CCCCC3)ccc2O1 | inactive: 1.01
12 | CNC[C@@H]1Oc2cc(C#CCN(C)C)ccc2S(=O)(=O)N([C@H](C)CO)C[C@H]1C | inactive: 1.01
13 | C[C@@H]1CN([C@H](C)CO)C(=O)Cc2cc(NC(=O)CCCN(C)C)ccc2O[C@H]1CN(C)S(=O)(=O)c1ccc(F)cc1 | inactive: 0.994
14 | COc1ccc(S(=O)(=O)Nc2ccc3c(c2)CC(=O)N([C@@H](C)CO)C[C@H](C)[C@H](CN(C)S(=O)(=O)c2cn(C)cn2)O3)cc1 | inactive: 1.03
15 | Cc1noc(C)c1S(=O)(=O)Nc1ccc2c(c1)C(=O)N([C@@H](C)CO)C[C@@H](C)[C@H](CN(C)Cc1ccccc1)OCCCC[C@H](C)O2 | inactive: 1
16 | COC(=O)CN(C)c1nnc(N)s1 | inactive: 0.997
17 | Nc1cccc(-n2cc(CCC(=O)NO)nn2)c1 | inactive: 0.993
18 | CN(C)C(=O)c1ccc(-c2ccc3n(c2=O)C[C@H]2[C@H](CO)[C@@H](C(=O)NCCc4ccccc4)N[C@@H]32)cc1 | inactive: 1.02
19 | NC1CCN(Cc2ccccc2)CC1 | inactive: 1.09
20 | CCNC(=O)N1CCC(O)CC1 | inactive: 0.966
21 | C[C@@H]1CCCCO[C@@H](CN(C)S(=O)(=O)c2cn(C)cn2)[C@@H](C)CN([C@@H](C)CO)C(=O)c2cc(NS(C)(=O)=O)ccc2O1 | inactive: 1.01
22 | O=C(NCCCl)N(CCCl)[N+][O-] | inactive: 0.992
23 | CCCCCCCCCCCCC[N+](C)(C)Cc1ccccc1 | active: 0.0319

Row | Structure (SMILES) | relative growth
24 | N#CCN(CC#N)C(=O)c1ccco1 | inactive: 0.932
25 | C[C@@H]1CCCCO[C@@H](CN(C)CC2CC2)[C@H](C)CN([C@H](C)CO)C(=O)c2cc(NC(=O)C3CCCCC3)ccc2O1 | inactive: 1.01
26 | C[C@@H]1CN([C@@H](C)CO)C(=O)Cc2cc(NC(=O)Cc3cn(C)c4ccccc34)ccc2O[C@@H]1CN(C)S(=O)(=O)c1cn(C)cn1 | inactive: 1.01
27 | C[C@@H]1CCCCO[C@@H](CN(C)C(=O)c2ccccc2)[C@@H](C)CN([C@@H](C)CO)C(=O)c2cc(NC(=O)Nc3cccc4ccccc34)ccc2O1 | inactive: 0.995
28 | Nc1cccc(/C=C/c2ccccn2)c1 | inactive: 0.97
29 | Nc1cccc(OCc2ccccc2)c1 | inactive: 0.931
30 | O=C(N[C@@H]1CC=CC[C@H](CC(=O)N(CCO)Cc2ccccc2)C(=O)NC[C@H](c2ccccc2)OC1=O)OCC1c2ccccc2-c2ccccc21 | inactive: 0.982
31 | C[C@@H]1CN([C@H](C)CO)C(=O)c2cccc(N(C)C)c2O[C@H]1CN(C)S(C)(=O)=O | inactive: 1.02
32 | C[C@H]1CN([C@@H](C)CO)C(=O)c2cccc(NC(=O)c3nc4ccccc4s3)c2O[C@@H]1CN(C)C(=O)Nc1ccc(C(F)(F)F)cc1 | inactive: 0.772
33 | C[C@@H]1CN([C@@H](C)CO)C(=O)Cc2cc(NS(C)(=O)=O)ccc2O[C@H]1CN(C)C(=O)Nc1ccc(C(F)(F)F)cc1 | inactive: 1.01
34 | C[C@@H]1CCCCO[C@H](CN(C)C(=O)NC2CCCCC2)[C@@H](C)CN([C@H](C)CO)C(=O)c2cc(NS(=O)(=O)c3cccs3)ccc2O1 | inactive: 1.02
35 | CC(C)NC(=O)N(C)C[C@H]1Oc2ccc(NC(=O)Nc3ccc4c(c3)OCO4)cc2C(=O)N([C@H](C)CO)C[C@H]1C | inactive: 0.993
36 | NCc1ccccc1-n1cncn1 | inactive: 1
37 | CCOC(=O)c1c(CNCCN(CC)CC)n(-c2ccccc2)c2cc(Br)c(OC)cc12 | inactive: 0.978
38 | Cc1noc(C)c1NC(=O)Nc1ccc2c(c1)C(=O)N([C@H](C)CO)C[C@H](C)[C@H](CN(C)CC1CCCCC1)OCCCC[C@@H](C)O2 | inactive: 0.982
39 | NCCCC[C@@H]1NC(=O)[C@H](CCC(=O)O)NC(=O)c2cc([N+](=O)[O-])ccc2OCC[C@@H](C(=O)NCC(=O)O)NC1=O | inactive: 1.02
40 | C[C@@H]1CCCCO[C@@H](CN(C)C(=O)Nc2ccc(C(F)(F)F)cc2)[C@@H](C)CN([C@@H](C)CO)C(=O)c2cc(N(C)C)ccc2O1 | inactive: 0.991
41 | CCOC(=O)/C(=N/O)C1=NNC(=N)SC1 | inactive: 0.959
42 | COC(=O)c1c(C)cc(O)cc1O | inactive: 0.964
43 | NCCCn1ccnc1 | inactive: 1
44 | C[C@@H]1CCCCO[C@H](CN(C)Cc2ccc(C(=O)O)cc2)[C@@H](C)CN([C@H](C)CO)C(=O)c2cc(NC(=O)NC3CCCCC3)ccc2O1 | inactive: 1.01
45 | C[C@@H]1CN([C@@H](C)CO)S(=O)(=O)c2ccc(-c3cccc(F)c3)cc2O[C@@H]1CN(C)S(C)(=O)=O | inactive: 0.989
46 | C[C@H](CO)N1C[C@H](C)[C@@H](CN(C)S(=O)(=O)c2ccc(Cl)cc2)OCc2cnnn2CCCC1=O | inactive: 0.99

Row | Structure (SMILES) | relative growth
47 | C[C@@H]1COC(=O)N1 | inactive: 0.92
48 | Cc1noc(C)c1NC(=O)Nc1ccc2c(c1)C(=O)N([C@H](C)CO)C[C@@H](C)[C@H](CN(C)C(=O)Nc1ccc(F)cc1)OCCCC[C@@H](C)O2 | inactive: 1.02
49 | Cc1cc(Oc2ccc3nc(COc4ccc(C[C@H]5SC(=O)NC5=O)cc4)n(C)c3c2)cc(C)c1N | inactive: 1.02
50 | CO[C@H]1CN(C)C(=O)c2cc(NS(=O)(=O)CC(F)(F)F)ccc2OC[C@@H](C)N(Cc2nccs2)C[C@H]1C | inactive: 0.984
51 | COc1ccc(-c2cnc3c(c2)C(=O)N([C@@H](C)CO)C[C@@H](C)[C@@H](CN(C)C(=O)Cc2ccncc2)O3)cc1 | inactive: 0.995
52 | C[C@@H]1CN([C@@H](C)CO)C(=O)c2cc(NS(=O)(=O)c3ccc(Cl)cc3)ccc2O[C@@H](C)CCCCO[C@H]1CN(C)CC1CC1 | inactive: 1.02
53 | C[C@@H]1CCCCO[C@H](CN(C)C(=O)C2CCCCC2)[C@H](C)CN([C@@H](C)CO)C(=O)c2cc(NS(=O)(=O)c3ccc(Cl)cc3)ccc2O1 | inactive: 0.855
54 | C[C@H](CO)N1C[C@H](C)[C@H](CN(C)Cc2ccc(C(F)(F)F)cc2)Oc2ccc(NS(C)(=O)=O)cc2CC1=O | inactive: 0.954
55 | C[C@@H]1CN([C@H](C)CO)C(=O)c2cc(-c3cncnc3)cnc2O[C@@H]1CN(C)C(=O)Nc1ccc2c(c1)OCO2 | inactive: 1.01
56 | COc1ccc(NC(=O)Nc2ccc3c(c2)C(=O)N([C@H](C)CO)C[C@@H](C)[C@H](CN(C)C(=O)C2CCCCC2)OCCCC[C@H](C)O3)cc1 | inactive: 1.02
57 | O=C(CN1CCNCC1)c1ccc(F)cc1 | inactive: 1
58 | C[C@H]1CN([C@@H](C)CO)C(=O)c2cc(C#Cc3ccccc3F)cnc2O[C@H]1CN(C)C(=O)C1CCOCC1 | inactive: 0.966
59 | C[C@H]1CN([C@@H](C)CO)C(=O)c2cccc(NC(=O)Nc3cccc4ccccc34)c2O[C@H]1CN(C)C(=O)Nc1ccccc1 | inactive: 1.04
60 | CO[C@@H]1CN(C)C(=O)c2cc(NC(=O)C3CC3)ccc2OC[C@H](C)N(C(=O)Cc2ccccn2)C[C@@H]1C | inactive: 1.04
61 | C[C@@H]1CN([C@@H](C)CO)C(=O)c2cccc(NC(=O)c3ccc(-c4nccs4)cc3)c2O[C@H]1CN(C)Cc1ccc2c(c1)OCO2 | inactive: 1.04
62 | O=C(Nc1c(Cl)cncc1Cl)c1ccc(OC(F)F)c(OCC2CC2)c1 | inactive: 1.09
63 | CCOC(=O)OC(C)OC1=C(C(=O)Nc2ccccn2)N(C)S(=O)(=O)c2ccccc21 (configuration not stated) | inactive: 1.03
64 | C[C@@H]1CN([C@H](C)CO)C(=O)c2cc(NC(=O)CCCN(C)C)ccc2O[C@@H](C)CCCCO[C@H]1CN(C)C(=O)Nc1cccc2ccccc12 | inactive: 0.971
65 | COc1ccc(CN(C)C[C@H]2Oc3ccc(NC(=O)Nc4cccc5ccccc45)cc3C(=O)N([C@H](C)CO)C[C@@H]2C)cc1 | inactive: 0.987
66 | C[C@@H]1CN([C@H](C)CO)C(=O)c2cc(NC(=O)NC3CCCCC3)ccc2O[C@H]1CN(C)Cc1ccc(-c2ccccc2)cc1 | inactive: 1.07
67 | COCCNC(=O)C[C@@H]1C[C@H]2c3cc(NS(C)(=O)=O)ccc3O[C@H]2[C@H](CO)O1 | inactive: 0.998
